Source: the supplement of paper PMC9588766
Counter-ions that a name gives are not always drawn. Whole data set: some 1,900 compounds, median “cell viability of compound + 1 nM pemigatinib relative to pemigatinib-only (DMSO) wells” near 0.95, cut for the lowest 2% near 0.22. The list shows a part of the results.

The molecules below were run on PDC-DUC18828 (assay: cell viability of compound + 1 nM pemigatinib relative to pemigatinib-only (DMSO) wells (fraction); PDC-DUC18828 is a patient-derived cholangiocarcinoma cell line; higher = less growth inhibition). Settings: first compound 1 µM; pemigatinib concentration 1 nM; 72 h.
Method: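 Selleck Bioactive library screen in the patient-derived FGFR2 fusion-positive ICC cell line PDC-DUC18828 (500 cells/well). Each compound was tested at 1 uM with 1 nM pemigatinib, in triplicate, for 72 h. Viability was read by CellTiter-Glo and normalised to plate DMSO controls. Value is the paper's averaged normalised viability.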

Structure (SMILES) | cell viability
CC(C)n1nc(-c2cc3cc(O)ccc3[nH]2)c2c(N)ncnc21 + CCN1C(=O)N(c2c(F)c(OC)cc(OC)c2F)Cc2cnc3[nH]c(CN4CCOCC4)cc3c21 [pemigatinib] | 0.315
Clc1ccc(C(Cn2ccnc2)OCc2c(Cl)cccc2Cl)c(Cl)c1 (configuration not stated) [Isoconazole nitrate] + CCN1C(=O)N(c2c(F)c(OC)cc(OC)c2F)Cc2cnc3[nH]c(CN4CCOCC4)cc3c21 [pemigatinib] | 0.896
CNc1nc(Nc2cnn([C@H]3CCN(C4COC4)C[C@@H]3F)c2Cl)ncc1C(F)(F)F + CCN1C(=O)N(c2c(F)c(OC)cc(OC)c2F)Cc2cnc3[nH]c(CN4CCOCC4)cc3c21 [pemigatinib] | 0.957
NC(CO)(CO)CO [Trometamol] + CCN1C(=O)N(c2c(F)c(OC)cc(OC)c2F)Cc2cnc3[nH]c(CN4CCOCC4)cc3c21 [pemigatinib] | 1.05
O=c1ncccn1[C@@H]1O[C@H](CO)[C@@H](O)[C@H]1O [Zebularine] + CCN1C(=O)N(c2c(F)c(OC)cc(OC)c2F)Cc2cnc3[nH]c(CN4CCOCC4)cc3c21 [pemigatinib] | 0.981
O=C(CCCCCCNC(=O)c1cnc(N(c2ccccc2)c2ccccc2)nc1)NO [Rocilinostat (ACY-1215)] + CCN1C(=O)N(c2c(F)c(OC)cc(OC)c2F)Cc2cnc3[nH]c(CN4CCOCC4)cc3c21 [pemigatinib] | 0.903
C[C@@H](N)[C@H]1CC[C@H](C(=O)Nc2ccncc2)CC1 + CCN1C(=O)N(c2c(F)c(OC)cc(OC)c2F)Cc2cnc3[nH]c(CN4CCOCC4)cc3c21 [pemigatinib] | 1.05
O=c1cc(-c2ccc(O)cc2)oc2cc(O)cc(O)c12 [Apigenin] + CCN1C(=O)N(c2c(F)c(OC)cc(OC)c2F)Cc2cnc3[nH]c(CN4CCOCC4)cc3c21 [pemigatinib] | 1
CO[C@H]1/C=C/O[C@@]2(C)Oc3c(C)c(O)c4c(c3C2=O)C2=NC3(CCN(CC(C)C)CC3)NC2=C(NC(=O)/C(C)=C\C=C\[C@H](C)[C@H](O)[C@@H](C)[C@@H](O)[C@@H](C)[C@H](OC(C)=O)[C@@H]1C)C4=O [Rifabutin] + CCN1C(=O)N(c2c(F)c(OC)cc(OC)c2F)Cc2cnc3[nH]c(CN4CCOCC4)cc3c21 [pemigatinib] | 0.969
CN(CCOc1ccc(NS(C)(=O)=O)cc1)CCc1ccc(NS(C)(=O)=O)cc1 [Dofetilide] + CCN1C(=O)N(c2c(F)c(OC)cc(OC)c2F)Cc2cnc3[nH]c(CN4CCOCC4)cc3c21 [pemigatinib] | 0.943
CC(=O)N1CCN(c2ccc(OCC3COC(Cn4ccnc4)(c4ccc(Cl)cc4Cl)O3)cc2)CC1 (configuration not stated) [Ketoconazole] + CCN1C(=O)N(c2c(F)c(OC)cc(OC)c2F)Cc2cnc3[nH]c(CN4CCOCC4)cc3c21 [pemigatinib] | 0.911
Cc1[nH]c(/C=C2\C(=O)Nc3ccccc32)c(C)c1CCC(=O)O [TSU-68 (SU6668, Orantinib)] + CCN1C(=O)N(c2c(F)c(OC)cc(OC)c2F)Cc2cnc3[nH]c(CN4CCOCC4)cc3c21 [pemigatinib] | 0.962
COc1cc(C=O)ccc1O [Vanillin] + CCN1C(=O)N(c2c(F)c(OC)cc(OC)c2F)Cc2cnc3[nH]c(CN4CCOCC4)cc3c21 [pemigatinib] | 0.892
C1=N/C2=N/c3ccc(OCCN4CCCC4)c(c3)COC/C=C/COCc3cccc(c3)C(=C1)N2 [Pacritinib (SB1518)] + CCN1C(=O)N(c2c(F)c(OC)cc(OC)c2F)Cc2cnc3[nH]c(CN4CCOCC4)cc3c21 [pemigatinib] | 0.8
CNc1ncc2cc(-c3cc(NC(=O)NCCC(C)(C)C)c(F)cc3C)c(C)nc2n1 + CCN1C(=O)N(c2c(F)c(OC)cc(OC)c2F)Cc2cnc3[nH]c(CN4CCOCC4)cc3c21 [pemigatinib] | 0.644
C#C[C@]1(O)CC[C@H]2[C@@H]3CCc4cc(OC)ccc4[C@H]3CC[C@@]21C [Mestranol] + CCN1C(=O)N(c2c(F)c(OC)cc(OC)c2F)Cc2cnc3[nH]c(CN4CCOCC4)cc3c21 [pemigatinib] | 1.07
CC(C)NCC(O)c1ccc(NS(C)(=O)=O)cc1 (configuration not stated) [Sotalol] + CCN1C(=O)N(c2c(F)c(OC)cc(OC)c2F)Cc2cnc3[nH]c(CN4CCOCC4)cc3c21 [pemigatinib] | 0.932
CN(C)C(=O)c1ccc(S(=O)(=O)c2ccc(NC(=O)[C@@](C)(O)C(F)(F)F)c(Cl)c2)cc1 + CCN1C(=O)N(c2c(F)c(OC)cc(OC)c2F)Cc2cnc3[nH]c(CN4CCOCC4)cc3c21 [pemigatinib] | 0.959
CC(C)(C)NS(=O)(=O)c1cncc(-c2cc(F)c3nc(N)nn3c2)c1 + CCN1C(=O)N(c2c(F)c(OC)cc(OC)c2F)Cc2cnc3[nH]c(CN4CCOCC4)cc3c21 [pemigatinib] | 0.959

Structure (SMILES) | cell viability
O=C(O)P(=O)(O)O [Foscarnet Sodium] + CCN1C(=O)N(c2c(F)c(OC)cc(OC)c2F)Cc2cnc3[nH]c(CN4CCOCC4)cc3c21 [pemigatinib] | 0.907
Cc1nc(C)c(Cl)c(O)c1Cl [Clopidol] + CCN1C(=O)N(c2c(F)c(OC)cc(OC)c2F)Cc2cnc3[nH]c(CN4CCOCC4)cc3c21 [pemigatinib] | 1.07
CCN(CC)CCCC(C)Nc1c2ccc(Cl)cc2nc2ccc(OC)cc12 (configuration not stated) [Quinacrine 2HCl] + CCN1C(=O)N(c2c(F)c(OC)cc(OC)c2F)Cc2cnc3[nH]c(CN4CCOCC4)cc3c21 [pemigatinib] | 0.94
N#Cc1ccc2[nH]c(O)c(-c3ccc(CN4CCOCC4)cn3)c2c1 + CCN1C(=O)N(c2c(F)c(OC)cc(OC)c2F)Cc2cnc3[nH]c(CN4CCOCC4)cc3c21 [pemigatinib] | 1.1
Oc1ccc(Nc2nc(-c3ccc(Cl)cc3)cs2)cc1 + CCN1C(=O)N(c2c(F)c(OC)cc(OC)c2F)Cc2cnc3[nH]c(CN4CCOCC4)cc3c21 [pemigatinib] | 0.862
COc1cc2ncnc(Nc3ccc(Cl)cc3F)c2cc1OC + CCN1C(=O)N(c2c(F)c(OC)cc(OC)c2F)Cc2cnc3[nH]c(CN4CCOCC4)cc3c21 [pemigatinib] | 0.835
N[C@@H]1CCCN(c2c(/C=C3\SC(=O)NC3=O)cccc2-c2ccccc2)C1 + CCN1C(=O)N(c2c(F)c(OC)cc(OC)c2F)Cc2cnc3[nH]c(CN4CCOCC4)cc3c21 [pemigatinib] | 0.841
CO[C@H]1C[C@@H]2CC[C@@H](C)[C@@](O)(O2)C(=O)C(=O)N2CCCC[C@H]2C(=O)O[C@H]([C@H](C)C[C@@H]2CC[C@@H](O)[C@H](OC)C2)CC(=O)[C@H](C)/C=C(\C)[C@@H](O)[C@@H](OC)C(=O)[C@H](C)C[C@H](C)/C=C/C=C/C=C/1C [Rapamycin (Sirolimus)] + CCN1C(=O)N(c2c(F)c(OC)cc(OC)c2F)Cc2cnc3[nH]c(CN4CCOCC4)cc3c21 [pemigatinib] | 0.555
CNC[C@H](O)c1cccc(O)c1 [Phenylephrine HCl] + CCN1C(=O)N(c2c(F)c(OC)cc(OC)c2F)Cc2cnc3[nH]c(CN4CCOCC4)cc3c21 [pemigatinib] | 0.885
N[C@@H]1CN(c2c(F)cc3c(=O)c(C(=O)O)cn([C@@H]4C[C@@H]4F)c3c2Cl)CC12CC2 [Sitafloxacin Hydrate] + CCN1C(=O)N(c2c(F)c(OC)cc(OC)c2F)Cc2cnc3[nH]c(CN4CCOCC4)cc3c21 [pemigatinib] | 1.08
Cc1nc(Nc2n[nH]c3c2CN(C(=O)N[C@H](CN(C)C)c2ccccc2)C3(C)C)c2sccc2n1 + CCN1C(=O)N(c2c(F)c(OC)cc(OC)c2F)Cc2cnc3[nH]c(CN4CCOCC4)cc3c21 [pemigatinib] | 0.498
CCOc1ccn(-c2ccc(F)cc2)c(=O)c1C(=O)Nc1ccc(Oc2ccnc(N)c2Cl)c(F)c1 + CCN1C(=O)N(c2c(F)c(OC)cc(OC)c2F)Cc2cnc3[nH]c(CN4CCOCC4)cc3c21 [pemigatinib] | 0.979
CCN(CC)CCN(Cc1ccc(-c2ccc(C(F)(F)F)cc2)cc1)C(=O)Cn1c(SCc2ccc(F)cc2)nc(=O)c2c1CCC2 + CCN1C(=O)N(c2c(F)c(OC)cc(OC)c2F)Cc2cnc3[nH]c(CN4CCOCC4)cc3c21 [pemigatinib] | 0.9
N#C[C@@H]1CCCN1C(=O)CNC12CC3CC(CC(O)(C3)C1)C2 [Vildagliptin (LAF-237)] + CCN1C(=O)N(c2c(F)c(OC)cc(OC)c2F)Cc2cnc3[nH]c(CN4CCOCC4)cc3c21 [pemigatinib] | 0.884
COC(=O)c1ccc2c(c1)NC(=O)/C2=C(\Nc1ccc(N(C)C(=O)CN2CCN(C)CC2)cc1)c1ccccc1 [Nintedanib (BIBF 1120)] + CCN1C(=O)N(c2c(F)c(OC)cc(OC)c2F)Cc2cnc3[nH]c(CN4CCOCC4)cc3c21 [pemigatinib] | 0.955
O=C(O[C@@H]1Cc2c(O)cc(O)cc2O[C@@H]1c1cc(O)c(O)c(O)c1)c1cc(O)c(O)c(O)c1 [(-)-Epigallocatechin Gallate] + CCN1C(=O)N(c2c(F)c(OC)cc(OC)c2F)Cc2cnc3[nH]c(CN4CCOCC4)cc3c21 [pemigatinib] | 1.01
CC(C)C[C@H](NC(=O)CNC(=O)c1cc(Cl)ccc1Cl)B(O)O + CCN1C(=O)N(c2c(F)c(OC)cc(OC)c2F)Cc2cnc3[nH]c(CN4CCOCC4)cc3c21 [pemigatinib] | 0.0167
C=CCc1ccc(O)c(-c2ccc(O)c(CC=C)c2)c1 [Honokiol] + CCN1C(=O)N(c2c(F)c(OC)cc(OC)c2F)Cc2cnc3[nH]c(CN4CCOCC4)cc3c21 [pemigatinib] | 0.942
